Reference: PubChem BioAssay (NCI)
Values joined by “and” are separate entries in the source; they are usually repeats but may differ in a detail not shown here. Identical values can stand only once.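 Compound exposure: 48 hours, 5 concentrations, 96-well plates. At the GI50, growth is halved. TGI: total growth inhibition.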

System: NCI-H322M lung
Experiment: NCI-60 cell line screen, 48 h

| Structure (SMILES) | TGI | GI50 |
| --- | --- | --- |
| CSc1ccsc1-c1sc(-c2cc(SC)c(-c3sc(-c4cc(SC)c(-c5sccc5SC)s4)cc3SC)s2)cc1SC | > 100 µM | – |
| O=C(O)CCSC(CC1(c2ccc(Cl)cc2)NC(=O)CCS1)c1ccccc1 (stereo not given) | 33.2 µM | – |
| C[N+](C)(C)CC1CCC/C1=N\OC(=O)c1ccccc1 (stereo not given) | > 100 µM | – |
| C(=C\c1ccc(-c2cn3cc(/C=C/C=N/NC4=NCCN4)ccc3n2)cc1)/C=N/NC1=NCCN1 | 6.23 µM | – |
| N=C1C(=N)c2ccccc2-c2ccccc21.N=C1C(=N)c2ccccc2-c2ccccc21.N=C1C(=N)c2ccccc2-c2ccccc21.[Cl-].[Ru+2] | 21.4 µM | – |
| COC1=C(Br)[C@H](O)[C@@]2(C=C1Br)CC(C(=O)NCCCOc1c(Br)cc(C(O)CNC(C)=O)cc1Br)=NO2 (stereo not given in full) | > 10 µM | – |
| O=C(NNc1ccccc1)C(=O)NNc1ccccc1 | > 100 µM | > 100 µM |
| O=C1CCC(=O)c2c1c(O)c1ccncc1c2O | 93 µM | – |
| COc1ccc(OC)c(/C=C(/C#N)c2ccccc2)c1 | > 100 µM | – |
| COc1ccc2c(c1)c[n+](C)c1c3cc(OC)c(OC)cc3ccc21 | 32.1 µM and 23 µM | 15.8 µM and 7.08 µM |
| CC1(C)OC[C@@H]([C@H](O)C2C=CC(=O)S2)O1 (stereo not given in full) | > 100 µM | – |
| CCOC(=O)c1c2c(n(Cc3ccccc3)c1C)C(=O)C(=O)c1ccccc1-2 | 1.01 µM | – |
| O=[N+]([O-])c1ccc(CI)cc1 | 23.7 µM | 10.5 µM |
| CC(=O)OCC1OC(n2c(C)cc(C)c(C#N)c2=S)C(OC(C)=O)C(OC(C)=O)C1OC(C)=O (stereo not given) | > 100 µM | – |
| COC12OCCN(C)C1=CC(=O)C1=NNC(C)C12 (stereo not given) | > 100 µM | – |
| CS(=O)(=O)Nc1cc(-c2ccc3ncnc(Nc4c(Cl)ccc5c4OCO5)c3c2)cnc1Cl | 1.01 µM | 0.155 µM |
| O=C1c2ccccc2C(=O)c2c1nc1ccccc1c2-c1cncc(-c2c3c(nc4ccccc24)C(=O)c2ccccc2C3=O)c1 | 25 µM | – |
| O=C(Nc1cc(C(F)(F)F)ccc1Cl)c1cccc(NC2=C(Cl)C(=O)N(Cc3ccccc3)C2=O)c1 | > 100 µM | > 100 µM |
| COc1ccc(C2=C3SC=c4ccccc4=C3ON=C2c2ccccc2)cc1 | > 100 µM | – |
| C/C(=N\NC(=S)N1CCCCCC1)c1ccccn1 | 5.03 µM and 8.64 µM | < 0.0196 µM |

| Structure (SMILES) | TGI | GI50 |
| --- | --- | --- |
| CN(C)c1ccc(N=Nc2ccccn2)c(O)c1 | > 100 µM | 0.402 µM |
| CCOC(=O)/C(=C/c1ccc(N(C)C)cc1)N(CC)CC | > 100 µM | – |
| COc1ccccc1Nc1ncc(-c2ccccc2)o1 | > 25 µM | > 25 µM |
| CC(C)=CCc1cc2c(cc1O)OC[C@H]1c3cc4c(cc3O[C@@H]21)OCO4 | > 100 µM | – |
| CCN(CC)CCSc1c2ccccc2nc2c(OC)ccc(OC)c12 | 48.5 µM | – |
| CCSC1=N/C(=C\c2ccc(N(C)C)cc2)C(Cl)=N1 | > 100 µM | – |
| Cc1ccc(S(=O)OCc2c(C)c(C)c(COS(=O)c3ccc(C)cc3)c(C)c2C)cc1 (stereo not given) | > 100 µM | – |
| O=c1[nH]c2ccc(O)cc2o1 | > 100 µM | – |
| CN1C(=O)C2CCCC(=O)N2c2cccnc21 (stereo not given) | > 100 µM | – |
| C[C@H](Nc1cc(Cl)nc2c1cnn2[C@@H]1O[C@H](COP(=O)(O)CP(=O)(O)O)[C@@H](O)[C@H]1O)c1ccccc1F | > 100 µM | > 100 µM |
| COc1cccc(C2CC23C(=O)NC(=O)NC3=O)c1 (stereo not given) | > 100 µM | – |
| O=c1c2ncn(C3CCCO3)c2n(-c2ccccc2)c(=S)n1-c1ccccc1 (stereo not given) | > 100 µM | – |
| [N-]=[N+]=N/C1=C/CCCCC(=O)C1 | > 100 µM | – |
| CC(=O)N1CCC(=O)/C(=C/c2ccccc2)C1 | > 100 µM | – |
| CC(=O)OCC1OC(OC2CC3C(C)(C)C(O)CC[C@]3(C)C3CCC45CC4(CCC5[C@@H](C)CC(O)C(O)C(C)(C)O)[C@]23C)C(O)C(O)C1O (stereo not given in full) | > 10 µM | – |
| CC(=O)O[C@H]1CC[C@@]2(C)C(=CC[C@H]3[C@@H]4C/C(=C\c5ccc(N(C)C)cc5)[C@H](OC(C)=O)[C@@]4(C)CC[C@@H]32)C1 | 98.1 µM | – |
| CCCCC/C=C1\CCC(CN(C)C)C1=O (stereo not given) | 45.3 µM | – |
| Cc1cc2c(cc1C(=O)c1ccc(N)cc1)OCO2 | > 100 µM | – |
| Cc1nc2ccc(F)cc2c2c1CCN2c1ccc(Cl)cc1 | 46.3 µM | – |
| Cc1cc(N(CCCNc2ccnc3cc(Cl)ccc23)Cc2ccc3c(c2)OCO3)nc(N2CCOCC2)n1 | 16.2 µM | 0.322 µM |
